# Where “and” joins values, the source holds several entries; their conditions need not be identical. Identical values can stand only once. For some of these results: Most of the hits are listed elsewhere, so they are rarer here than in the full data. Inconclusive results are not listed. Only a part is listed here, and it is no random draw. Calls of active or inactive are those of the source. Unless noted, calls come from the whole dose curve; as a rule, active = well fitted curve in the direction sought with a large enough effect in the repeat runs; inconclusive = weak or mixed curves; inactive = no such curve, though single readings can be large; an effect the other way counts as inactive or inconclusive.
# Experiments:
# [1] = molecular target: Cytochrome P450 3A4 (Homo sapiens) (UniProt P08684); experiment: Cytochrome P450 family 3 subfamily A member 4 (CYP3A4) small molecule antagonists: luciferase qHTS assay (AID 1645841); conditions: P450-Glo CYP3A4 enzyme assay, luciferin luminescence; at 57.4 µM (top of the series); note: nearly all actives have a fitted effect of over 45% in size
# Chain of UniProt P08684 (P08684 whole entry, looked up): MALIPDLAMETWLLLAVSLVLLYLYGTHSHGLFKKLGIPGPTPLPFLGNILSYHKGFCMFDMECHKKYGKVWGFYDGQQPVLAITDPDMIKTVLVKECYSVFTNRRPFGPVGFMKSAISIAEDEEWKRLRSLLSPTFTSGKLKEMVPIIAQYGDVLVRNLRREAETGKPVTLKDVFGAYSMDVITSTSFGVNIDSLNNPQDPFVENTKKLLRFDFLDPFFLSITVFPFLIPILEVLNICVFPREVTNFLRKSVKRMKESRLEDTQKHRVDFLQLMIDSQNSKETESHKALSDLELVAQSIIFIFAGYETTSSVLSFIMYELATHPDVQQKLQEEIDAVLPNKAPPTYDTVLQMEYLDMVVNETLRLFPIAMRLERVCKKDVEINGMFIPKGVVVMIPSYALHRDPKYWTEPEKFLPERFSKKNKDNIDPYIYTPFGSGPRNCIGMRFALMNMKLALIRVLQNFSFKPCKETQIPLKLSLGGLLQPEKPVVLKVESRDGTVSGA
# Method in brief: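 P450-Glo CYP3A4 enzyme with proluciferin substrate preincubated 10 min with compound at room temperature, then NADPH regeneration 1 h. Luciferin detection reagent added for 20 min; luminescence recorded. Ketoconazole positive control.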
# [2] = molecular target: Cytochrome P450 2C9 (Homo sapiens) (UniProt P11712); experiment: Cytochrome P450 family 2 subfamily C member 9 (CYP2C9) small molecule antagonists: luciferase biochemical (cell-free) qHTS assay (AID 1645842); note: nearly all actives have a fitted effect of over 55% in size; note: potency is the fitted concentration of half-maximal effect; for activity change, negative = inhibition: % is set by controls: 0 for no effect and ±100 for the full control effect
# Chain of UniProt P11712 (P11712 whole entry, looked up): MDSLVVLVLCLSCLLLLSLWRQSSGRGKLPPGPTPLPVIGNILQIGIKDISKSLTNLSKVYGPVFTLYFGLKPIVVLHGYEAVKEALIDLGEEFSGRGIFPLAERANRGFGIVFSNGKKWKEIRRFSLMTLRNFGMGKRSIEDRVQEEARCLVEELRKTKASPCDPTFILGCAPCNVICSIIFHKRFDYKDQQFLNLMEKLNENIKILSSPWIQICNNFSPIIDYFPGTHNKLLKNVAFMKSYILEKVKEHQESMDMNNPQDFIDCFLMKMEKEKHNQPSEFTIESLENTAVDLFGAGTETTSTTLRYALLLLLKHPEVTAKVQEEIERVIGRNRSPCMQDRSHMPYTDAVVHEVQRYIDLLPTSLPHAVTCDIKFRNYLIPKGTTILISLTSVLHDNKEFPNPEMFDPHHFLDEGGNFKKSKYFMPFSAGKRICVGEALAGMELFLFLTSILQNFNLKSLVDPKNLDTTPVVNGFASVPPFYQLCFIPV
# Method in brief: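 Luminescence, after 20 min with luciferin detection reagent, reflected CYP2C9 turnover during a 1 h NADPH-driven reaction at 37C. Enzyme-substrate mix contained 0.4% bovine serum albumin and was preincubated with compound 10 min at room temperature.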
# [3] = molecular target: Voltage-gated inwardly rectifying potassium channel KCNH2 (Homo sapiens) (UniProt Q12809); experiment: qHTS Assay for Small Molecule Inhibitors of the Human hERG Channel Activity (AID 588834; active = well fitted curve in the direction sought with a large enough effect; an effect the other way counts as inactive or inconclusive;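 note: top concentration of the series differs between compounds; % is set by controls: 0 for no effect and ±100 for the full control effect; lower thallium flux fluorescence means stronger hERG block; nearly all actives have a fitted effect of over 50% in size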); conditions: U2OS BacMam hERG, FluxOR thallium flux fluorescence; at 46.1 µM (top of the series)
# Chain of UniProt Q12809 (Q12809 whole entry, looked up): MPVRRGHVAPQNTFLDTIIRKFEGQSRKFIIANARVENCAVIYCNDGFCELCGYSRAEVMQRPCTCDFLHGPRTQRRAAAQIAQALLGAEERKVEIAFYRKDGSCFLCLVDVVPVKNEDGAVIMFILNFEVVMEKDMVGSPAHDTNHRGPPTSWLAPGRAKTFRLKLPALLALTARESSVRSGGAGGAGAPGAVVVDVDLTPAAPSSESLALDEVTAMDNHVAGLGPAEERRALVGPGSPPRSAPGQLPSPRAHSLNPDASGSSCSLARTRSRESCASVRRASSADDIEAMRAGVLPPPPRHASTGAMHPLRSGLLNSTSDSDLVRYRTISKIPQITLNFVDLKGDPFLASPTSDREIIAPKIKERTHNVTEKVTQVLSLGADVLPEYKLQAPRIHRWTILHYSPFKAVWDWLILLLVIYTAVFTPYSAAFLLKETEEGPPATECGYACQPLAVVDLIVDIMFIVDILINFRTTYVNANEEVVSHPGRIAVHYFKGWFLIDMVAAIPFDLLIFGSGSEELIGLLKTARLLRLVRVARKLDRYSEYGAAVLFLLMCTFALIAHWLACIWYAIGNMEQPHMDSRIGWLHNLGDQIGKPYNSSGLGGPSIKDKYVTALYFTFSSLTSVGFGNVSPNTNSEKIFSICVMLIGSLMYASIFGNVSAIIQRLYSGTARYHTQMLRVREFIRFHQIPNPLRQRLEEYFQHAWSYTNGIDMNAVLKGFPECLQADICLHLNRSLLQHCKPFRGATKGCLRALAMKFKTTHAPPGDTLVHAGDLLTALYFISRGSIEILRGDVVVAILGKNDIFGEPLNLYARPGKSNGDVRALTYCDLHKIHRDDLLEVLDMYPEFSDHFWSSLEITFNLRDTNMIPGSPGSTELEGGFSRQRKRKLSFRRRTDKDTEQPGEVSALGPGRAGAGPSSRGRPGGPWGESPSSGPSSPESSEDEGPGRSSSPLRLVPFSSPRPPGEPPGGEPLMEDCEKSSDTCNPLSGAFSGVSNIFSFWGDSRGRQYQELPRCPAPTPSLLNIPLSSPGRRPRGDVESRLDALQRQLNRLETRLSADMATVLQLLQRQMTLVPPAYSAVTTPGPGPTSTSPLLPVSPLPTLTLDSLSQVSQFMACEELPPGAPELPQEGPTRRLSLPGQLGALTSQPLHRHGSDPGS
# Method in brief: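 Blockade is seen as reduced FluxOR thallium-flux fluorescence in U2OS cells expressing hERG from a BacMam construct, in Opti-MEM with 2% FCS. Concentration-response data fitted to the Hill equation for AC50.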
# [4] = molecular target: Cytochrome P450 2D6 (Homo sapiens) (UniProt P10635); experiment: Cytochrome P450 family 2 subfamily D member 6 (CYP2D6) small molecule antagonists: luciferase biochemical (cell-free) qHTS assay (AID 1645840); conditions: P450-Glo CYP2D6 enzyme, luciferin luminescence, 1 h; at 57.4 µM (top of the series); note: % is set by controls: 0 for no effect and ±100 for the full control effect; nearly all actives have a fitted effect of over 55% in size
# Chain of UniProt P10635 (P10635 whole entry, looked up): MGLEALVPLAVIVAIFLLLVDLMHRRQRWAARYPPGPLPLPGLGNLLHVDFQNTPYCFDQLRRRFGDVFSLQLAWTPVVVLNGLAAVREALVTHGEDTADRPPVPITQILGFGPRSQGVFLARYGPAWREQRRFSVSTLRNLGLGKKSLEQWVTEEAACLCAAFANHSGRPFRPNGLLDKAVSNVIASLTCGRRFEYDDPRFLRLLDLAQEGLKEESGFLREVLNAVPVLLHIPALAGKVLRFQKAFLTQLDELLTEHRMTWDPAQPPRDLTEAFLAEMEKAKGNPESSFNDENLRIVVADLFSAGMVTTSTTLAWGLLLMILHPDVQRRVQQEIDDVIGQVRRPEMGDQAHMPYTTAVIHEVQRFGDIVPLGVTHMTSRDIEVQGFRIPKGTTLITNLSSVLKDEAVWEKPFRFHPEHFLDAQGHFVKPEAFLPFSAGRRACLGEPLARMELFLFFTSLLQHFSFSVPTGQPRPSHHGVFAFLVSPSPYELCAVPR
# Method in brief: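 P450-Glo luminescent screen: recombinant CYP2D6 enzyme–proluciferin substrate mix preincubated with compound 10 min at room temperature, then NADPH regeneration added for 1 h at room temperature. Detection reagent added for 20 min; luciferin light read as relative luminescence units.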
# [5] = molecular target: Cytochrome P450 1A2 (Homo sapiens) (UniProt P05177); experiment: p450-cyp1a2 (AID 410; calls by dose curve;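 note: top concentration of the series differs between compounds; -100% = full effect of reference inhibitor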); conditions: recombinant CYP1A2, luciferin-ME demethylation, luminescence; at 57 µM (top of the series) unless noted
# Chain of UniProt P05177 (P05177 whole entry, looked up): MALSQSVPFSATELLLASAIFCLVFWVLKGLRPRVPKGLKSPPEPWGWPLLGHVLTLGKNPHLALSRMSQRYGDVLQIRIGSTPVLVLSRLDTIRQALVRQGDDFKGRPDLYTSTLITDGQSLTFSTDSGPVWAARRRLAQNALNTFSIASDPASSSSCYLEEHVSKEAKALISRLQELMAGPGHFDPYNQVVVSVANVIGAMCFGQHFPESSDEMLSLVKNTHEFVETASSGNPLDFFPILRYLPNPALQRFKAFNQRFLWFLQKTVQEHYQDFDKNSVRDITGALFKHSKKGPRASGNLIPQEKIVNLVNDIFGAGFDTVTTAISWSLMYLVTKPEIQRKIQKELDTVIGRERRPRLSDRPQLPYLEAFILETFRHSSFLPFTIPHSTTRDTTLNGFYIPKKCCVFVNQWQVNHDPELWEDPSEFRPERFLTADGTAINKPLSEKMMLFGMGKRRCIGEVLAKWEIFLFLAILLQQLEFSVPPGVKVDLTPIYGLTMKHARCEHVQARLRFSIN
# Method in brief: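 20nM CYP1A2 with 100uM Luciferin-ME (at Km) in 100mM KPO4; compound preincubated 10 min, NADPH regeneration added, 60 min at room temperature. Luciferin quantified by luminescence after detection reagent; normalized to 57 uM furafylline.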
# [6] = molecular target: Cytochrome P450 2D6 (Homo sapiens) (UniProt P10635); experiment: qHTS Assay for Inhibitors and Substrates of Cytochrome P450 2D6 (AID 891; active = well fitted curve in the direction sought with a large enough effect; an effect the other way counts as inactive or inconclusive;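 note: luciferin methyl ether substrate demethylated by CYP2D6 with NADPH regeneration; top concentration of the series differs between compounds; % is set by controls: 0 for no effect and ±100 for the full control effect; nearly all actives have a fitted effect of over 60% in size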); conditions: recombinant CYP2D6, luciferin-ME EGE luminescence; at 57.1 µM (top of the series)
# Method in brief: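 Human CYP2D6 (5 nM) with 30 uM Luciferin-ME EGE (at Km) in 100 mM KPO4, compound preincubated 10 min, then NADPH regeneration system for 60 min at room temperature. Luciferin read by luminescence; normalized to 1.43 uM quinidine.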
# [7] = molecular target: Cytochrome P450 2C19 (Homo sapiens) (UniProt P33261); experiment: qHTS Assay for Inhibitors and Substrates of Cytochrome P450 2C19 (AID 899; active = well fitted curve in the direction sought with a large enough effect; an effect the other way counts as inactive or inconclusive; note: top concentration of the series differs between compounds; % is set by controls: 0 for no effect and ±100 for the full control effect; nearly all actives have a fitted effect of over 60% in size); conditions: recombinant CYP2C19, luciferin-H EGE luminescence; at 57.1 µM (top of the series)
# Chain of UniProt P33261 (P33261 whole entry, looked up): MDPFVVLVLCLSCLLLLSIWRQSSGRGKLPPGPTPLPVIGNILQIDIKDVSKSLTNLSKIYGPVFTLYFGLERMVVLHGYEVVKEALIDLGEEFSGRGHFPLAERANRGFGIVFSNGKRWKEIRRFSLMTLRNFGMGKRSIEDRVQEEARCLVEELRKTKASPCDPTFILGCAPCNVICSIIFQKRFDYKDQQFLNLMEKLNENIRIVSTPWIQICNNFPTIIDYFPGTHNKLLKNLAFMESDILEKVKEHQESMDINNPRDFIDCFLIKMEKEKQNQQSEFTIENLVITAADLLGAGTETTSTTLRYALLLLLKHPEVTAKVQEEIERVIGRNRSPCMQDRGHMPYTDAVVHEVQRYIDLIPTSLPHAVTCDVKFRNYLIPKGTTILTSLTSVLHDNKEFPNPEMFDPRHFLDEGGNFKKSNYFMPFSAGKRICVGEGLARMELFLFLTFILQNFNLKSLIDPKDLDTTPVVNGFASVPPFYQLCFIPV
# Method in brief: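 Luminescent read-out of luciferin formed from Luciferin-H EGE (10uM, equal to KM). Enzyme 5nM in 50mM KPO4; compound added, 10 min at 37C, then NADPH regenerating system for 60 min at 37C. Full inhibition defined by 57uM ketoconazole.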
smiles,measurement,setting,value
C[C@@H]1CN(Cc2ccc(F)cc2)CCN1C(=O)COc1ccc(Cl)cc1NC(N)=O,"activity change, negative = inhibition",[1],inactive: 42.7%
same,Potency,[2],active: 4.77 µM
CC(=O)[C@H]1CC[C@H]2[C@@H]3CC[C@H]4C[C@H](O)CC[C@]4(C)[C@H]3C(=O)C[C@]12C,"activity change, negative = inhibition",[3],inactive: 14.9%
same,"activity change, negative = inhibition",[4],inactive: -2%
same,"activity change, negative = inhibition",[1],inactive: -6.04%
same,Potency,[2],active: 8.71 µM
CN1c2ccccc2C(NCCCCCCC(=O)O)c2ccc(Cl)cc2S1(=O)=O (stereo not drawn),"activity change, negative = inhibition",[3],inactive: 1.51%
CC(=O)[C@@H]1CC[C@@H]2[C@H]3CC[C@H]4C[C@@H](O)CC[C@]4(C)[C@@H]3C(=O)C[C@]21C,"activity change, negative = inhibition",[5],inactive: -1.7%
same,"activity change, negative = inhibition",[6],inactive: -3.6%
same,"activity, negative = inhibition",[7],inactive: -7.56%
CC(=O)[C@@H]1CC[C@H]2[C@H]3CC[C@H]4C[C@@H](O)CC[C@]4(C)[C@@H]3C(=O)C[C@@]12C,"activity change, negative = inhibition",[5],inactive: -16.7% [at 25.6 µM]
CCNC(=O)CC1N=C(c2ccc(Cl)cc2)c2cc(OC)ccc2-n2c(C)nnc21 (stereo not drawn),"activity change, negative = inhibition",[4],inactive: 3.54% and inactive: 8.59%
same,Potency,[2],active: 9.52 µM and inactive

# — PubChem BioAssay (NCATS)
